Data set [1] relates to U2OS. As to the kind of experiment: Multiplex assay against U2OS. The class given is toxicity, cell-based. The settings on record: human, number of replicates 2. The essentials:
(§1)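 Per cents of healthy-nucleus cells form the tubulin, mitochondrial-mass and membrane-permeability phenotype values. Live cells were stained at seeding with Hoechst33342, BioTracker Green Microtubule Cytoskeleton Dye, MitoTracker Red and Annexin V Alexa Fluor 680. After compound addition they were imaged on a CQ1 microscope at 37°C and 5% CO2, and CellPathfinder machine-learning gating split them into Hoechst high-intensity objects or normal cells, normal cells into healthy, pyknosed or fragmented nuclei, and pyknosed cells into mitotic or apoptotic.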

Data set [2] deals with Fibroblast. The data set can be described thus: Multiplex assay against human fibroblast. The settings on record: number of replicates 2. It is filed as toxicity, cell-based. In a few lines:
as §1

Setting [3] is: 12 h, 1 µM, compound concentration 1 uM.
Where [4] appears, read: 12 h, 10 µM, compound concentration 10 uM.
Setting [5] is: 24 h, 1 µM, compound concentration 1 uM.
The mark [6] stands for this setting: 24 h, 10 µM, compound concentration 10 uM.
[7] abbreviates: 48 h, 1 µM, compound concentration 1 uM.
[8] abbreviates: 48 h, 10 µM, compound concentration 10 uM.

Certain results were filed several times, with different values. The list is limited to them. The source may hold further records. Results that share an entry are repeated measurements in other runs, samples, wells, individuals or studies.

With `Cc1onc(-c2ccccc2Cl)c1C(=O)N(C)c1ccc(Cl)cc1`, the “Population Fragmented Nuclei (%)” value in data set [1] (setting [3]) was 28% and 2%; in data set [1] (setting [4]) it was 34% and 4%; in data set [1] (setting [5]), 17% and 2%; in data set [1] (setting [6]), 23% and 3%; in data set [1] (setting [7]), 17% and 2%; in data set [1] (setting [8]) it was 16% and 1%. Besides, the “Population Fragmented Nuclei (%)” value in data set [2] (setting [8]) is 3% and 15%. The “Population Membrane Permeable-Phenotype (%)” value is 20% and 4% in data set [1] (setting [3]); 20% and 5% in data set [1] (setting [5]). Also, the “Total Cell Count” value was 35 and 179 in data set [1] (setting [3]); 69 and 243 in data set [1] (setting [4]); 40 and 275 in data set [1] (setting [5]); 94 and 333 in data set [1] (setting [6]); 78 and 604 in data set [1] (setting [7]); 140 and 611 in data set [1] (setting [8]).
With `CN[C@@H]1CC[C@@H](c2ccc(Cl)c(Cl)c2)c2ccccc21.Cl`, the “Population Mitochondria Different-Phenotype (%)” value in data set [1] (setting [3]) was 14% and 3%. The “Population Fragmented Nuclei (%)” value in data set [1] (setting [4]) is 35% and 9%; in data set [1] (setting [6]), 32% and 8%. Besides, the “Population Healthy Nuclei (%)” value was 17% and 56% in data set [1] (setting [6]); 11% and 45% in data set [1] (setting [8]). In addition, in data set [1] (setting [7]), the “Population Mitotic Cells (%)” value was 14% and 47%. For the same molecule, the “Population Tubulin-Different-Phenotype (%)” value in data set [2] (setting [7]) was 29% and 9%.
For `CN(C)CC#Cc1ccc2[nH]c3c(c2c1)-c1nc(N)ncc1CCC3`, in data set [1] (setting [3]), the “Population Mitotic Cells (%)” value was 0% and 61%. For the same molecule, the “Total Cell Count” value in data set [1] (setting [3]) is 57 and 191; in data set [1] (setting [4]) it was 30 and 302; in data set [1] (setting [5]) it was 64 and 264; in data set [1] (setting [6]), 35 and 317; in data set [1] (setting [7]) it was 101 and 390; in data set [1] (setting [8]) it was 52 and 428. The “Population Fragmented Nuclei (%)” value was 60% and 11% in data set [1] (setting [4]); 60% and 10% in data set [1] (setting [6]); 69% and 14% in data set [1] (setting [8]). The “Population Pyknosed Nuclei (%)” value in data set [1] (setting [4]) is 6% and 32%; in data set [1] (setting [6]) it was 8% and 50%; in data set [1] (setting [8]), 11% and 36%. Moreover, the “Population Apoptotic (%)” value in data set [2] (setting [4]) is 38% and 10%.
As to `Cc1ccc2c(c1CCC(=O)O)CC[C@@H](NS(=O)(=O)c1ccc(Cl)cc1)C2` [TERUTROBAN], the “Population Fragmented Nuclei (%)” value in data set [1] (setting [3]) was 4% and 36%; in data set [1] (setting [5]), 32% and 3%; in data set [1] (setting [7]) it was 22% and 2%. The “Total Cell Count” value in data set [1] (setting [3]) is 211 and 38; in data set [1] (setting [4]), 59 and 207; in data set [1] (setting [5]), 34 and 291; in data set [1] (setting [6]) it was 71 and 313; in data set [1] (setting [7]), 68 and 617; in data set [1] (setting [8]) it was 110 and 632.
In the case of `CS(=O)(=O)c1ccc(C(=O)Nc2cc(F)cc(COc3ccc(Br)cc3CN3CC[C@H](O)C3)c2)c(Cl)c1.O=CO`, the “Total Cell Count” value in data set [1] (setting [3]) was 56 and 182; in data set [1] (setting [4]), 41 and 208; in data set [1] (setting [5]) it was 268 and 64; in data set [1] (setting [6]), 40 and 242; in data set [1] (setting [7]) it was 98 and 427; in data set [1] (setting [8]), 36 and 270.
Regarding `CC1=C(C)C(=O)C(C(C)(C)CC(=O)N(CCCCSC[C@H]2O[C@@H](n3cnc4c(N)ncnc43)[C@H](O)[C@@H]2O)Cc2cccc(-c3ccc(Cl)cc3)c2)=C(C)C1=O`, the “Total Cell Count” value in data set [1] (setting [3]) was 257 and 40; in data set [1] (setting [4]), 36 and 225; in data set [1] (setting [5]), 358 and 58; in data set [1] (setting [6]), 26 and 246; in data set [1] (setting [7]), 86 and 746; in data set [1] (setting [8]), 37 and 300. In addition, the “Population Fragmented Nuclei (%)” value is 15% and 4% in data set [1] (setting [6]); 16% and 5% in data set [1] (setting [8]). Also, in data set [1] (setting [7]), the “Population Mitotic Cells (%)” value was 0% and 60%.
Consider `Cc1c(C(=O)Nc2ccc(N3C[C@@H](C)O[C@@H](C)C3)nc2)cccc1-c1ccc(OC(F)(F)F)cc1` [SONIDEGIB], for which the “Population Fragmented Nuclei (%)” value in data set [1] (setting [3]) was 31% and 6%; in data set [1] (setting [4]), 26% and 3%; in data set [1] (setting [5]), 26% and 5%; in data set [1] (setting [6]), 28% and 2%; in data set [1] (setting [7]), 33% and 2%; in data set [1] (setting [8]) it was 19% and 2%. Moreover, the “Total Cell Count” value was 38 and 232 in data set [1] (setting [3]); 34 and 218 in data set [1] (setting [4]); 41 and 356 in data set [1] (setting [5]); 39 and 300 in data set [1] (setting [6]); 51 and 739 in data set [1] (setting [7]); 81 and 683 in data set [1] (setting [8]). For the same molecule, in data set [1] (setting [4]), the “Population Apoptotic (%)” value is 0% and 45%.
For the molecule `COc1cc(Nc2cnc(C#N)c(O[C@H](C)CN(C)C)n2)ncc1-c1cnn(C)c1`, the “Population Fragmented Nuclei (%)” value in data set [1] (setting [3]) was 26% and 4%; in data set [1] (setting [4]), 39% and 9%; in data set [1] (setting [5]), 21% and 5%; in data set [1] (setting [7]), 15% and 3%. Further, the “Population Membrane Permeable-Phenotype (%)” value in data set [1] (setting [3]) is 12% and 1%; in data set [1] (setting [4]) it was 31% and 5%; in data set [1] (setting [6]) it was 20% and 3%. Moreover, the “Population Mitotic Cells (%)” value in data set [1] (setting [3]) was 0% and 40%; in data set [1] (setting [4]) it was 11% and 43%. Moreover, the “Total Cell Count” value is 38 and 227 in data set [1] (setting [3]); 41 and 188 in data set [1] (setting [4]); 55 and 290 in data set [1] (setting [5]); 29 and 193 in data set [1] (setting [6]); 63 and 528 in data set [1] (setting [7]); 30 and 211 in data set [1] (setting [8]).
For the molecule `CS(=O)(=O)c1ccc(C(=O)Nc2cccc(COc3ccc(Br)cc3CN3CC[C@H](O)C3)c2)cc1.O=CO`, the “Population Mitotic Cells (%)” value is 0% and 27% in data set [1] (setting [3]); 0% and 29% in data set [1] (setting [4]). Also, the “Total Cell Count” value was 50 and 243 in data set [1] (setting [3]); 29 and 241 in data set [1] (setting [4]); 62 and 337 in data set [1] (setting [5]); 43 and 276 in data set [1] (setting [6]); 104 and 603 in data set [1] (setting [7]); 48 and 349 in data set [1] (setting [8]).
For the molecule `Cc1ccc(C(=O)Nc2cc(N3CCN(C)CC3)cc(C(F)(F)F)c2)cc1-n1cc(-c2cnn(C)c2C)nn1.Cl`, the “Population Fragmented Nuclei (%)” value is 21% and 2% in data set [1] (setting [3]); 6% and 29% in data set [1] (setting [4]); 17% and 2% in data set [1] (setting [5]); 10% and 35% in data set [1] (setting [8]). For the same molecule, the “Population Mitochondria Different-Phenotype (%)” value was 6% and 25% in data set [1] (setting [3]); 2% and 30% in data set [1] (setting [5]); 5% and 23% in data set [1] (setting [7]). Moreover, the “Total Cell Count” value is 47 and 157 in data set [1] (setting [3]); 175 and 31 in data set [1] (setting [4]); 29 and 209 in data set [1] (setting [6]); 105 and 324 in data set [1] (setting [7]); 204 and 34 in data set [1] (setting [8]).
For `Cc1cc(NC(=O)c2cccc(NC(=O)/C=C/CN(C)C)c2)ccc1Nc1nccc(-c2cccnc2)n1`, the “Population Fragmented Nuclei (%)” value in data set [1] (setting [3]) was 39% and 5%; in data set [1] (setting [5]), 34% and 7%; in data set [1] (setting [8]), 20% and 6%. Besides, the “Total Cell Count” value was 43 and 217 in data set [1] (setting [3]); 42 and 156 in data set [1] (setting [4]); 50 and 302 in data set [1] (setting [5]); 48 and 155 in data set [1] (setting [6]); 65 and 492 in data set [1] (setting [7]); 48 and 147 in data set [1] (setting [8]). Further, in data set [1] (setting [5]), the “Population Mitotic Cells (%)” value is 66% and 13%.
As for `CCn1ccc(Nc2ncc3c(n2)-c2c(nn(C)c2-c2ccc(-c4cnn(C)c4)cc2Cl)CC3)n1`, the “Population Membrane Permeable-Phenotype (%)” value in data set [1] (setting [3]) is 1% and 14%; in data set [1] (setting [5]), 2% and 13%. The “Total Cell Count” value in data set [1] (setting [3]) was 262 and 33; in data set [1] (setting [4]), 32 and 236; in data set [1] (setting [5]) it was 344 and 45; in data set [1] (setting [6]), 36 and 285; in data set [1] (setting [7]), 590 and 61; in data set [1] (setting [8]), 45 and 292. In addition, the “Population Fragmented Nuclei (%)” value was 4% and 17% in data set [1] (setting [5]); 2% and 13% in data set [1] (setting [7]). For the same molecule, in data set [1] (setting [7]), the “Population Mitotic Cells (%)” value was 36% and 0%.
Consider `COCCN1CCN(CCn2ccc(Nc3ncc4c(n3)-c3c(nn(C)c3-c3ccccc3)C[C@H]4C)n2)CC1`, for which the “Population Fragmented Nuclei (%)” value in data set [1] (setting [3]) was 4% and 19%. For the same molecule, the “Total Cell Count” value in data set [1] (setting [3]) was 196 and 51; in data set [1] (setting [4]) it was 49 and 288; in data set [1] (setting [5]), 255 and 70; in data set [1] (setting [6]) it was 63 and 359; in data set [1] (setting [7]), 80 and 504; in data set [1] (setting [8]) it was 55 and 473.

Values taken from ChEMBL document CHEMBL5303300, “EUbOPEN Chemogenomics Library - Multiplex” (2023).
